# Reference: the supplement of paper PMC12217912
# Some of the results follow. Sequences were assembled here from the parent chain. Values near 0.05 are background.
# B1: TEV protease; numbered along this chain (parent)
# chain: MGESLFKGPRDYNPISSSICHLTNESDGHTTSLYGIGFGPFIITNKHLFRRNNGTLVVQSLHGVFKVKDTTTLQQHLVDGRDMIIIRMPKDFPPFPQKLKFREPQREERICLVTTNFQTKSMSSMVSDTSCTFPSGDGIFWKHWIQTKDGQCGSPLVSTRDGFIVGIHSASNFTNTNNYFTSVPKNFMELLTNQEAQQWVSGWRLNADSVLWGGHKVFMVKPEEPFQPVKEATQL
# Variants of: B1
# Experiment: raw area under fraction-flipped curve 0-4 h after induction (AUC4h, not background-subtracted), DNA-recorder readout of cleavage of the substrate (dimensionless); higher = more cleavage of the substrate by the protease variant
# Conditions: temperature: 34 °C; time window: 0-4 h after rhamnose induction
# 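Also: Bxb1 expression induced with 0.2% (w/v) L-rhamnose at OD600 near 0.5, cultures sampled hourly, flipped fraction per protease–substrate barcode pair counted by paired-end Illumina sequencing.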
Variant,area with substrate ENLEFQS,area with substrate ENLFFQS,area with substrate ENLHFQS,area with substrate ENLIFQS,area with substrate ENLKFQS,area with substrate ENLLFQS,area with substrate ENLMFQS,area with substrate ENLPFQS,area with substrate ENLQFQS,area with substrate ENLSFQS
MGESLFKGPRDYNPISSSICHLTNESDGHTTSLYGIGFGPFIITNKHLFRRNNGTLVVQSLHGVFKVKDTTTLQQHLVDGRDMIIIRMPKDFPPFPQKLKFRESQREERICLVTTNFQTKSMSSMVSDTSCTFPSGDGIFWKHWIQTKDGQCGSPLVSTRDGFIVGIHSASNFTNTNNYFTSVPKNFMELLTNQEAQQWVSGWRLNADSVLWGGHKVFMVKPEEPFQPVKEATQL [P104S],0.0478,0.0453,0.0548,0.0621,0.0613,0.0546,0.0661,0.0313,0.0435,0.0529
MGESLFKGPRDYNPISSSICHLTNESDGHTTSLYGIGFGPFIITNKHLFRRNNGTLVVQSLHGVFKVKDTTTLQQHLVDGRDMIIIRMPKDFPPFPQKLKFREPQREERICLVTTNFQTKSMSSMVSDTSCTFPSGDGIFWKHWIQTKDGQCGSPLVSTRDGFIVGIHSASNFTNTNNYFTSVPKNFMELLTNQEAQQWVSGWRLNAHSVLWGGHKVFMVKPEEPFQPVKEATQL [D208H],0.0571,,,,0.0545,,,,,
MGESLFKGPRDYNPISSSICHLTNESDGHTTSLYGIGFGPFIITNKHLFRRNNGTLVVQSLHGVFKVKDTTTLQQHLVDGRDMIIIRMPKDFPPFPQKLKFREPQREERICLVTTNFQTKSMSSMVSDTSCTFPSGDGIFWKHWIQTKDGQCGSPLVSTRDGFFVGIHSASNFTNTNNYFTSVPKNFMELLTNQEAQQWVSGWRLNADSVLWGGHKVFMVKPEEPFQPVKEATQL [I164F],0.0443,0.0536,,,0.0529,,0.0358,,0.0636,
MGESLFKGPRDYNPISSSICHLTNESDGHTTSLYGIGFGPFIITNKHLFRRNNGTLVVQSLHGVFKVKDTTTLQQHLVDGRDMIINRMPKDFPPFPQKLKFREPQREERICLVTTNFQTKSMSSMVSDTSCTFPSGDGIFWKHWIQTKDGQCGSPLVSTRDGFIVGIHSASNFTNTNNYFTSVPKNFMELLTNQEAQQWVSGWRLNADSVLWGGHKVFMVKPEEPFQPVKEATQL [I86N],,0.0629,,0.0452,0.0527,,,,,0.0317
MGESLFKGPRDYNPISSSICHLTNESDGHTTSLYGIGFGPFIITNKHLFRRNNGTLVVQSLHGVFKVKDTTTLQQHLVDGRDMIIIRMPKDFPPFPQKLKFREPQREERICLVHTNFQTKSMSSMVSDTSCTFPSGDGIFWKHWIQTKDGQCGSPLVSTRDGFIVGIHSASNFTNTNNYFTSVPKNFMELLTNQEAQQWVSGWRLNADSVLWGGHKVFMVKPEEPFQPVKEATQL [T114H],0.061,0.0698,0.101,0.088,,0.0745,,0.0589,,0.0614
MGESLFKGPRDYNPISSSICHLTNESDGHTTSLYGIGFGPFIITNKHLFRRNNGTLVVQSLHGVFKVKDTTTLQQHLVDGRDMIIIRMPKDFPPFPQKLKFREPQREERICMVTTNFQTKSMSSMVSDTSCTFPSGDGIFWKHWIQTKDGQCGSPLVSTRDGFIVGIHSASNFTNTNNYFTSVPKNFMELLTNQEAQQWVSGWRLNADSVLWGGHKVFMVKPEEPFQPVKEATQL [L112M],0.0438,0.084,,,0.0704,,0.0896,0.0602,0.0664,0.0541
MGESDFKGPRDYNPISSSICHLTNESDGHTTSLYGIGFGPFIITNKHLFRRNNGTLVVQSLHGVFKVKDTTTLQQHLVDGRDMIIIRMPKDFPPFPQKLKFREPQREERICLVTTNFQTKSMSSMVSDTSCTFPSGDGIFWKHWIQTKDGQCGSPLVSTRDGFIVGIHSASNFTNTNNYFTSVPKNFMELLTNQEAQQWVSGWRLNADSVLWGGHKVFMVKPEEPFQPVKEATQL [L5D],,0.114,,,,0.0862,0.0566,0.0671,,
MGESRFKGPRDYNPISSSICHLTNESDGHTTSLYGIGFGPFIITNKHLFRRNNGTLVVQSLHGVFKVKDTTTLQQHLVDGRDMIIIRMPKDFPPFPQKLKFREPQREERICLVTTNFQTKSMSSMVSDTSCTFPSGDGIFWKHWIQTKDGQCGSPLVSTRDGFIVGIHSASNFTNTNNYFTSVPKNFMELLTNQEAQQWVSGWRLNADSVLWGGHKVFMVKPEEPFQPVKEATQL [L5R],,0.125,,0.0719,0.0534,,,,,0.0474
MGESLFKGPRDYNPISSSICHLTNESDGHTTSLYGIGFGPFIITNKHLFRRNNGTLVVQSLHGVFKVKDTTTLQQHLVDGRDMIIIRMPKDFPPFPQKLKFREPQREERECLVTTNFQTKSMSSMVSDTSCTFPSGDGIFWKHWIQTKDGQCGSPLVSTRDGFIVGIHSASNFTNTNNYFTSVPKNFMELLTNQEAQQWVSGWRLNADSVLWGGHKVFMVKPEEPFQPVKEATQL [I110E],0.0783,,,,,,,,,
MGESLFKGPRDYNPISSSICHLTNESDGHTTSLYGIGFGPFIITNKHLFRRNNGTLVVQSLHGVFKVKDTTTLQQHLVDGRDMIIIRMPKDFPPFTQKLKFREPQREERICLVTTNFQTKSMSSMVSDTSCTFPSGDGIFWKHWIQTKDGQCGSPLVSTRDGFIVGIHSASNFTNTNNYFTSVPKNFMELLTNQEAQQWVSGWRLNADSVLWGGHKVFMVKPEEPFQPVKEATQL [P96T],,0.0721,,0.109,,,,,,0.0612
MGESLFKGPRDYNPISSSICHLTNESDGHTTSLYGIGFGPFIITNKHLFRRNNGTLVVQSLHGVFKVKDTTTLQQHLVDGRDMIIIRMPKDFPPFPQKLKFREPQREERICLVTTNFQTKSMSSMVSDTSCTFPSGDGIFWKHWIQTKDGQCGSPLVSTRDGFIVGIHSASNFTNTYNYFTSVPKNFMELLTNQEAQQWVSGWRLNADSVLWGGHKVFMVKPEEPFQPVKEATQL [N177Y],0.074,0.0731,,,0.0685,,,,,

# Same assay, conditions: temperature: 34 °C; time window: 0-4 h after rhamnose induction
Variant,area with substrate ENLTFQS,area with substrate ENLWFQS,area with substrate ENLRFQS,area with substrate ENLNFQS,area with substrate ENLVFQS,area with substrate ENLGFQS
MGESLFKGPRDYNPISSSICHLTNESDGHTTSLYGIGFGPFIITNKHLFRRNNGTLVVQSLHGVFKVKDTTTLQQHLVDGRDMIIIRMPKDFPPFPQKLKFRESQREERICLVTTNFQTKSMSSMVSDTSCTFPSGDGIFWKHWIQTKDGQCGSPLVSTRDGFIVGIHSASNFTNTNNYFTSVPKNFMELLTNQEAQQWVSGWRLNADSVLWGGHKVFMVKPEEPFQPVKEATQL [P104S],0.0606,0.0555,,,,
MGESLFKGPRDYNPISSSICHLTNESDGHTTSLYGIGFGPFIITNKHLFRRNNGTLVVQSLHGVFKVKDTTTLQQHLVDGRDMIIIRMPKDFPPFPQKLKFREPQREERICLVTTNFQTKSMSSMVSDTSCTFPSGDGIFWKHWIQTKDGQCGSPLVSTRDGFIVGIHSASNFTNTNNYFTSVPKNFMELLTNQEAQQWVSGWRLNAHSVLWGGHKVFMVKPEEPFQPVKEATQL [D208H],,0.0316,0.0775,,,
MGESLFKGPRDYNPISSSICHLTNESDGHTTSLYGIGFGPFIITNKHLFRRNNGTLVVQSLHGVFKVKDTTTLQQHLVDGRDMIIIRMPKDFPPFPQKLKFREPQREERICLVTTNFQTKSMSSMVSDTSCTFPSGDGIFWKHWIQTKDGQCGSPLVSTRDGFFVGIHSASNFTNTNNYFTSVPKNFMELLTNQEAQQWVSGWRLNADSVLWGGHKVFMVKPEEPFQPVKEATQL [I164F],0.0537,,,0.0546,0.0731,
MGESLFKGPRDYNPISSSICHLTNESDGHTTSLYGIGFGPFIITNKHLFRRNNGTLVVQSLHGVFKVKDTTTLQQHLVDGRDMIINRMPKDFPPFPQKLKFREPQREERICLVTTNFQTKSMSSMVSDTSCTFPSGDGIFWKHWIQTKDGQCGSPLVSTRDGFIVGIHSASNFTNTNNYFTSVPKNFMELLTNQEAQQWVSGWRLNADSVLWGGHKVFMVKPEEPFQPVKEATQL [I86N],,0.0415,,,,
MGESLFKGPRDYNPISSSICHLTNESDGHTTSLYGIGFGPFIITNKHLFRRNNGTLVVQSLHGVFKVKDTTTLQQHLVDGRDMIIIRMPKDFPPFPQKLKFREPQREERICLVHTNFQTKSMSSMVSDTSCTFPSGDGIFWKHWIQTKDGQCGSPLVSTRDGFIVGIHSASNFTNTNNYFTSVPKNFMELLTNQEAQQWVSGWRLNADSVLWGGHKVFMVKPEEPFQPVKEATQL [T114H],,,0.0484,0.0436,0.0672,0.101
MGESLFKGPRDYNPISSSICHLTNESDGHTTSLYGIGFGPFIITNKHLFRRNNGTLVVQSLHGVFKVKDTTTLQQHLVDGRDMIIIRMPKDFPPFPQKLKFREPQREERICMVTTNFQTKSMSSMVSDTSCTFPSGDGIFWKHWIQTKDGQCGSPLVSTRDGFIVGIHSASNFTNTNNYFTSVPKNFMELLTNQEAQQWVSGWRLNADSVLWGGHKVFMVKPEEPFQPVKEATQL [L112M],,0.0635,0.0759,0.068,0.117,0.0773
MGESDFKGPRDYNPISSSICHLTNESDGHTTSLYGIGFGPFIITNKHLFRRNNGTLVVQSLHGVFKVKDTTTLQQHLVDGRDMIIIRMPKDFPPFPQKLKFREPQREERICLVTTNFQTKSMSSMVSDTSCTFPSGDGIFWKHWIQTKDGQCGSPLVSTRDGFIVGIHSASNFTNTNNYFTSVPKNFMELLTNQEAQQWVSGWRLNADSVLWGGHKVFMVKPEEPFQPVKEATQL [L5D],,0.0687,0.0756,0.0656,0.0575,
MGESRFKGPRDYNPISSSICHLTNESDGHTTSLYGIGFGPFIITNKHLFRRNNGTLVVQSLHGVFKVKDTTTLQQHLVDGRDMIIIRMPKDFPPFPQKLKFREPQREERICLVTTNFQTKSMSSMVSDTSCTFPSGDGIFWKHWIQTKDGQCGSPLVSTRDGFIVGIHSASNFTNTNNYFTSVPKNFMELLTNQEAQQWVSGWRLNADSVLWGGHKVFMVKPEEPFQPVKEATQL [L5R],,,,0.0597,,
